Measured values reported in patent US5691366A, “Nitro compounds, process for preparation thereof and use thereof” (Fujisawa Pharmaceutical Co., Ltd., priority 1991, dated 1997).
The name of at least one read-out is uncertain.

Columns and labels:
[1] = tested on: Mean Arterial Blood Pressure in Anesthetized Rats; assay: Effect on mean arterial blood pressure in anesthetized rats (intravenous); assay type: in vivo, rat (male Sprague-Dawley); conditions: i.v., maximal % decrease of mean blood pressure
Description: Male Sprague-Dawley rats, aged 9-12 weeks, were anesthetized with urethane (1.4 g/kg i.p.). A polyethylene cannula filled with heparin solution was inserted into the femoral artery of the rats to measure mean blood pressure. Mean blood pressure was measured with a pressure transducer and recorded on a polygraph. The test compound dissolved in ethanol, polyethylene glycol and distilled water (1:1:2), were administered intraveneously in a volume of 0.25 ml/kg. Intravenous hypothypotensive effects of each compound were expressed as the maximal decrease (R max) and the half time (T 1/2). Briefly, R max was expressed as maximal % change compared to mean blood pressure prior to the administration of compound. T 1/2 was expressed as a time during which the hypotensive effect recovered to half of the maximal decrease.

[2] = tested on: Mean Arterial Blood Pressure in Conscious Rats; assay: Effect on mean arterial blood pressure in conscious rats (oral); assay type: in vivo, rat (male Sprague-Dawley); conditions: maximal % decrease of mean blood pressure
Description: Male Sprague-Dawley rats, aged 9-11 weeks, were anesthetized with ether and a polyethylene cannula filled with heparin solution was inserted into the femoral artery of the rats to measure mean blood pressure. Mean blood pressure was measured with a pressure transducer and recorded on a polygraph. Two hours after operation, the drug suspended in 0.5% methyl cellulose was administered orally in a volume of 5 ml/kg. Oral hypotensive effects of each compound were expressed as the maximal decrease (R max), the half time (T 1/2) and the duration (Dur.). Briefly, R max was expressed as maximal % change compared to mean blood pressure prior to the administration of compound. T 1/2 was expressed as a time during which the hypotensive effect recovered to half of the maximal decrease. Duration was expressed as a time during which the hypotensive effect recovered to 5% of the maximal decrease.

## CCC(C(C)=CC(CNC(=O)c1cccnc1)=NO)[N+](=O)[O-] (single isomer, unassigned) [Example 18 B, N-(2-hydroxyimino-4-methyl-5-nitro-3-hepten-1-yl)-3-pyridinecarboxamide]
[1]; 0.32 mg/kg
  Hypotensive effect R max: 15.3%
[1]; 1.0 mg/kg
  Hypotensive effect R max: 37.8%
[2]; 10 mg/kg
  Hypotensive effect R max: 38.9%
[2]; 32 mg/kg
  Hypotensive effect R max: 47.0%

## CCC(=CC(CNC(=O)c1cccnc1)=NO)C(CC)[N+](=O)[O-] (single isomer, unassigned) [Example 25 A, N-(4-Ethyl-2-hydroxyimino-5-nitro-3-hepten-1-yl)-3-pyridinecarboxamide]
[2]; 10 mg/kg
  Hypotensive effect R max: 19.3%

## CCC(=CC(CNS(=O)(=O)N(C)C)=NO)C(C)[N+](=O)[O-] (single isomer, unassigned) [Example 7 B, N,N-Dimethyl-N'-(4-ethyl-2-hydroxyimino-5-nitro-3-hexen-1-yl)sulfamide]
[1]; 0.1 mg/kg
  Hypotensive effect R max: 28.9%

## CCC(=CC(CNC(=O)c1cccnc1)=NO)C(C)[N+](=O)[O-] (stereo not drawn) [Example 6 A]
[1]; 0.032 mg/kg
  Hypotensive effect R max: 4.7%

## CCC(=CC(COC(=O)c1cccnc1)=NO)C(C)[N+](=O)[O-] (single isomer, unassigned) [Example 1 B, 4-ethyl-2-hydroxyimino-5-nitro-3-hexen-1-yl 3-pyridinecarboxylate]
[1]; 0.1 mg/kg
  Hypotensive effect R max: 41.6%

## CC(=CC(CNC(=O)c1cccnc1)=NO)C(C)[N+](=O)[O-] (single isomer, unassigned) [Example 19 B, N-(2-Hydroxyimino-4-methyl-5-nitro-3-hexen-1-yl)-3-pyridinecarboxamide]
[1]; 0.32 mg/kg
  Hypotensive effect R max: 35.3%

## CCC(=CC(CSc1nnnn1C)=NO)C(C)[N+](=O)[O-] (single isomer, unassigned) [Example 12 B, 1-Methyl-5-(4-ethyl-2-hydroxyimino-5-nitro-3-hexen-1-yl)thiotetrazole]
[1]; 0.1 mg/kg
  Hypotensive effect R max: 41.5%

## CCC(=CC(CNC(C)=O)=NO)C(C)[N+](=O)[O-] (single isomer, unassigned) [Example 5 A, 1-Acetylamino-4-ethyl-2-hydroxyimino-5-nitro-3-hexene]
[1]; 0.1 mg/kg
  Hypotensive effect R max: 36.5%

## CCC(=CC(CNC(=O)c1cccnc1)=NO)C(CC)[N+](=O)[O-] (single isomer, unassigned) [Example 25 B, N-(4-Ethyl-2-hydroxyimino-5-nitro-3-hepten-1-yl)-3-pyridinecarboxamide]
[1]; 0.32 mg/kg
  Hypotensive effect R max: 31.1%
[2]; 10 mg/kg
  Hypotensive effect R max: 41.3%

## CCC(=CC(CNC(=O)c1cccnc1C)=NO)C(C)[N+](=O)[O-] (single isomer, unassigned) [Example 30 B, N-(4-Ethyl-2-hydroxyimino-5-nitro-3-hexen-1-yl)-2-methyl-3-pyridinecarboxamide]
[1]; 0.32 mg/kg
  Hypotensive effect R max: 39.8%
[2]; 10 mg/kg
  Hypotensive effect R max: 40.3%
